# Laboratory results taken from paper PMC4336329 (PLoS ONE, 2015).
# In all, about 310,000 compounds went through this assay and about 14,000 (4.5%) showed an effect of 50% or more. The effect is printed as a negative number. This is one part of the list.
# Biological target: human ether-à-go-go-related gene (hERG) potassium channel (human, UniProt Q12809)
# Assay: primary screen, population patch clamp on CHO cells stably expressing hERG
# 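Further: peak tail current of the secondary pulse compared with the same well before compound.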
# Chain of human ether-à-go-go-related gene (hERG) potassium channel (Q12809 whole entry, looked up): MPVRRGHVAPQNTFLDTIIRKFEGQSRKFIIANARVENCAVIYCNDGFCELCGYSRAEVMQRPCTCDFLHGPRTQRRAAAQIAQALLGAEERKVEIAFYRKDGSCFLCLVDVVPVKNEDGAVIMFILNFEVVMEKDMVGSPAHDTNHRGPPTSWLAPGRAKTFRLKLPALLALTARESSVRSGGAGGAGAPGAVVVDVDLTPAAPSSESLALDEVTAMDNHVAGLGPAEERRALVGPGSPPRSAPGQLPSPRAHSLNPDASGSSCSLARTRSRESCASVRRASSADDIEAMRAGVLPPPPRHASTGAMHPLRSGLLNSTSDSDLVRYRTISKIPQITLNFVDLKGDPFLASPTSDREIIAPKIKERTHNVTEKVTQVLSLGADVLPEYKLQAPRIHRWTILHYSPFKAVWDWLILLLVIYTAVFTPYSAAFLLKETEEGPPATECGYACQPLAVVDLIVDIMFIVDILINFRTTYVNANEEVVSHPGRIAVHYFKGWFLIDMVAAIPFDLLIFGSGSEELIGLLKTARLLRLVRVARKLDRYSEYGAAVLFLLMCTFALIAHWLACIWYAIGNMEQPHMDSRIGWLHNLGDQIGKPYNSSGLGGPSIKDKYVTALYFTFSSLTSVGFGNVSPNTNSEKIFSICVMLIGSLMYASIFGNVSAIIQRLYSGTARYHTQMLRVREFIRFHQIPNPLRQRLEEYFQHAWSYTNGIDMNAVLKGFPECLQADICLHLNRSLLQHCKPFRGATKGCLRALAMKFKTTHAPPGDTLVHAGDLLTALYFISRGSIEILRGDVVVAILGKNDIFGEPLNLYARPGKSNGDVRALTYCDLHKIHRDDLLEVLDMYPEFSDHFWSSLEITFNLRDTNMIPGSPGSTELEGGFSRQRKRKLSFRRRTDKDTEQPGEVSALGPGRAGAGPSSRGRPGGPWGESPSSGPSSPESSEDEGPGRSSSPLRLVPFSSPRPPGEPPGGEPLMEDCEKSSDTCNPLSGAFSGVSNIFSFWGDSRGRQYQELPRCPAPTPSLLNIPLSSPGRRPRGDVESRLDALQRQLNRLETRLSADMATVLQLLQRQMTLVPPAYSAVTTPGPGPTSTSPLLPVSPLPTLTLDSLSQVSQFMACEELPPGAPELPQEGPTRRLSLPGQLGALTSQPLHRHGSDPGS
row,SMILES,"hERG current change (%, negative = inhibition) at 10uM [%]"
1,CCn1c(=O)c2ccccc2n(CC(=O)N2CCCc3ccccc32)c1=O,5.99
2,O=C(CSc1cccc2cccc(Cl)c12)NC1=NCCS1,8.28
3,CCN1C(=O)C(NC(C)=O)c2cc(OC)ccc21 (stereo not shown),7.82
4,Nc1nc(SCC(=O)Nc2ccc(Cl)cc2C(F)(F)F)n[nH]1,22
5,CC(=O)C1=C(O)C(=O)OC1c1ccc(Cl)cc1 (stereo not shown),7.92
6,CCOC(=O)c1sc(N(C)C)nc1-c1ccccc1,3.34
7,CCC(=O)Nc1ccc(N2CCOCC2)c(S(=O)(=O)Nc2ccc(OC)cc2)c1,3.09
8,CCN1CCN(CCc2nc3cc([N+](=O)[O-])ccc3n2C)CC1,-16.9
9,CCOc1ccc(OCC)c(NC(=O)Cn2cccc2)c1,-4.95
10,CCOC(=O)C1CCN(C(c2cccs2)c2sc3nc(C)nn3c2O)CC1 (stereo not shown),-12.6
11,CC(/C=C/c1ccc2c(c1)OCO2)=N\NC(=O)c1ccccc1,10.3
12,COc1ccc(CN(Cc2cc3cccc(C)c3n3nnnc23)C(=O)N2CCOCC2)cc1,-1.26
13,CC(Oc1ccc(Cl)cc1)c1ccnn1S(=O)(=O)c1ccc(Cl)cc1 (stereo not shown),2.97
14,CC(CC(=O)NCCc1ccc(S(N)(=O)=O)cc1)c1ccccc1 (stereo not shown),19.3
15,Cc1ccc(C)c(N=Cc2cc3c(cc2[N+](=O)[O-])OCO3)c1,9.15
16,COc1ccc([C@H]2CC(=O)C=C(c3cc(C)ccc3F)C2)cc1,-3.08
17,C/C(=C/C(=O)N1CCc2ccccc21)C(=O)O,5.43
18,CP(=O)(Nc1cc(Cl)ccc1Cl)c1nc2c(s1)CCCC2 (stereo not shown),-23.3
19,COc1ccc(N(CC(=O)NCc2ccc(Cl)cc2)S(=O)(=O)c2ccccc2[N+](=O)[O-])c(OC)c1,-1.15
20,CC1(C)CC(NC(=O)C23CCC(C)(/C(=N/O)C2)C3(C)C)CC(C)(C)N1 (stereo not shown),-3.78

row,SMILES,"hERG current change (%, negative = inhibition) at 10uM [%]"
1,c1cc(-c2nnc(-c3ccncc3)o2)ccn1,7.92
2,CCc1nnc(NS(=O)(=O)c2ccc(NCc3ccccc3O)cc2)s1,31.3
3,Cc1ccc2nc(-c3cccnc3)oc2c1,5.22
4,O=C(CNS(=O)(=O)/C=C/c1ccccc1)OCC(=O)N1CCC(Cc2ccccc2)CC1,-14.4
5,CCOC(=O)C1CCN(S(=O)(=O)c2nc3nc(C)cc(C)n3n2)CC1,-12.4
6,CCn1c(=O)c2c3c(sc2n2c(SCc4ccc(F)cc4)nnc12)CCCC3,-3.54
7,CCOC(=O)C1=NN(c2ccccc2)C2(S1)SC(C(C)=O)=C(C)N2c1ccccc1 (stereo not shown),8.42
8,COc1ccccc1N1CCN(C(=O)c2cc3c(C)nc4ccccc4c3o2)CC1,-33
9,CCC(Cc1ccccc1)NC(=O)C1CCCCC1 (stereo not shown),1.82
10,O=C1CC(c2ccco2)c2ccc3ccccc3c2N1 (stereo not shown),-5.31
11,COc1ccc(CC(=O)Nc2nc(C)cs2)cc1,3.2
12,Cc1nc(Cl)c(C(=O)NCc2ccccc2)c(C)c1[N+](=O)[O-],8.86
13,CSc1ccc2nnc(-c3cccc(F)c3)n2n1,-27.9
14,CC12CCC(=O)N1C(C(=O)Nc1nc(-c3cc(F)ccc3F)cs1)CS2 (stereo not shown),0.403
15,Cc1ccc(N(CC(=O)N2CCc3ccccc32)C2=NC(=O)CS2)cc1,-26.7
16,Cc1ccc(F)c(NC(=O)c2c(-c3ccccc3)noc2C)c1,7.17
17,CSc1nc2c(c(=O)[nH]1)C(c1cccc(Cl)c1)CC(=O)N2 (stereo not shown),-1.08
18,COc1ccc(/C=N/NC(=O)CNS(=O)(=O)c2ccc(C)cc2)cc1,8.76
19,COc1ccccc1CNC(=O)Cn1ccsc1=N.Cl,-1.4
20,Cc1ccc(C)c(S(=O)(=O)C(C#N)c2nc3ccccc3nc2N2CCCC2)c1 (stereo not shown),-4.16

row,SMILES,"hERG current change (%, negative = inhibition) at 10uM [%]"
1,CC(C)OCC(O)CSc1ccccn1 (stereo not shown),-10.2
2,Cc1ccc(C(=O)c2coc3ccc(OCC(=O)O)cc23)cc1,2.16
3,CCCCc1cc(=O)oc2cc(OCc3cc(OC)c(OC)c(OC)c3)c(Cl)cc12,23.2
4,CCn1c(CCCOc2ccc(Cl)cc2Cl)n[nH]c1=S,9.95
5,CC(CN(C)C)CN1c2ccccc2Sc2ccccc21.O=C(O)C(O)C(O)C(=O)O (stereo not shown),-44.6
6,COc1cccc(NS(=O)(=O)c2cc3c(cc2C)N(C)CCO3)c1,16.4
7,NC(=O)c1c(NC(=O)c2cccnc2)sc2c1CCCC2,17.5
8,O=C(Nc1ccc(N2CCN(C(=O)c3ccco3)CC2)cc1)c1ccccc1F,4.64
9,COc1ccc(C(CCNC(C)c2ccccc2)C(C)C)cc1 (stereo not shown),-4.48
10,O=S(=O)(c1ccc(SCc2ccccc2F)nc1)N1CCCC1,-12.6
11,Cc1nn(C(C)C(=O)NC2C(=O)N3C(C(=O)O)=C(CSc4nnnn4C)CSC23)cc1Cl (stereo not shown),13.6
12,O=C(Cc1ccccc1F)Nc1ccccc1-c1ccccc1,27.6
13,CCOC(=O)c1ccc(Oc2nc(NC)nc(OC)n2)cc1,2.59
14,CS(=O)(=O)c1ccccc1-c1nnc(NC(=O)c2ccc(S(=O)(=O)N3CCCC3)cc2)o1,12.8
15,N#Cc1cccc(NC(=O)Cn2cnc(S(=O)(=O)N3CCCC3)c2)c1,12.7
16,Cc1c(C(=O)c2ccccc2)c(=O)n(C)c(=O)n1C,12.2
17,COc1ccc(Cn2nnnc2C(c2ccccn2)N2CCN(c3cc(Cl)ccc3C)CC2)cc1 (stereo not shown),-9.87
18,CCCCNS(=O)(=O)c1ccc(OC)cc1,13
